Results from the supplement of paper PMC11417369.
The list shows a part of the results.

Tested on: PfAP2-HC AP2 domain (GST-tagged)
Experiment: gcPBM binding intensity (ln(normalized median fluorescence intensity)); higher = stronger DNA binding
Outline: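 Binding intensity is defined as the maximum Masliner-normalised natural-log median intensity across replicate spots for either probe orientation. It was measured on an Agilent 4 × 180k array of primer-extended double-stranded 36-bp intergenic genomic probes and negative controls, to which GST-tagged P. falciparum DNA-binding domains made in E. coli were applied for 1 h in 1× PBS with 1% milk, 0.2 mg/ml BSA, 0.5% salmon testes DNA and 0.03% Triton X-100. Detection was by Alexa488 anti-GST antibody and scanning at 488 nm.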

Sequence	gcPBM binding intensity (ln)
TTTGTGTATATATAATGTACATTATATTTTTATTAT [XGTACX_site6506]	9.88
ATTAAAAAAAAAGAGCGTACAAATAATTACTTCTTT [XGTACX_site8262]	9.52
TATAAATTTATAAATAGTACATATATTTATATATAT [XGTACX_site6433]	9.54
TATATATATGGACACACACACACATATATATATATA [CACACA_site6121]	11.3
AAAAAAAATATACATACATGCATACATAAGTTTCTA [TGCATGCA_site998]	9.62
AAAAAAAAAAAAATTACACACATACATATAATAATA [CACACA_site8680]	9.89
ATATTAAGAATAAACAGTACATATAATAAATACCAT [XGTACX_site5933]	9.86
AAAAAAAAAAAAAAATGTACATATATATATATATTA [XGTACX_site7330]	9.45
ATAAAATAAGACAAAAAAAAAATATATATATATATA [TGCATGCA_negctrl_site314]	9.86
CCTTGTCTTTTTTTTTTTTTTTTTTCTTCTTATTTT [GTGCAC_negctrl_site523]	9.64
AGTAGATATAATATATGTACATATATATATATATAT [XGTACX_site7186]	9.72
AATAAATTTAAACACACACACACATATATATATATA [CACACA_site4621]	10.4
TATATACATAAACACACACACACATATATATATATA [CACACA_site8707]	10.4
TGCATATACTCAAGCACACATATATATATATATATA [CACACA_site4733]	9.71
AATTAATGGTTAAAGGTGCACAATACATATATTACA [GTGCAC_site9943]	9.95
ATATATTGAAAATATAGTACATAATAAATGTTCTTT [XGTACX_site8474]	9.52
CCGTACAATTTTGTCACACATAAAATACTTATGTAT [CACACA_site4871]	9.77
AATGTAGTTTATCGATGTACACAAAATAAAGAGAAG [XGTACX_site6956]	9.81
TAGTATTTATATGATTAACACACATATGGGTATTAA [CACACA_site8363]	9.62
ATAATGTTCACATAGGTGCACTAATATAATTATCCA [GTGCAC_site9981]	9.69
AAAAAAAAAAAAAAAAGTACTCAATAATAATTACAT [XGTACX_site670]	9.46
CATAATAGTTATAAAATACACACCAGGCATGATAAA [CACACA_site329]	9.73
ATATACACCTGAGAGGTGCATATATATAAAATTTAC	9.52

Sequence	gcPBM binding intensity (ln)
AAAGTAAAAGGGTTTGGTACACATATAATATATTAG [XGTACX_site6036]	9.73
CATTTATATAAAGAATGTACACACAGAAATGCACAC [XGTACX_site4718]	10
ATAACTTTTATTTGTACACACATACATCTATATTAT [CACACA_site6595]	10.2
AGTAAAAGAAAGCACACACACATGTATTTATGTATG [CACACA_site5998]	10.9
GTAATTTTTTTCTATACACACATATATATAATATAT [CACACA_site2655]	9.96
AATATAAATATAAATATAAATAAATAAATAAATAAA [CACACA_negctrl_site291]	9.75
TATACGTGTTTTATTTGTACTTAAGCAGGTAAGCAT [XGTACX_site193]	9.55
CTATATATTTTTTCTTAACACACATATATAAAATAA [CACACA_site9165]	9.34
TATATGTATCCATTATGTACATAATAGTAATATAAT [XGTACX_site4008]	9.72
TATATTTATTTTCTGTGTACACATATGTTGTGTATT [XGTACX_site7640]	9.93
AAAACCTAGTGCATTTGTACATATTTCAATTTTAAA [XGTACX_site4582]	9.59
TAAAAAATACAAGAGTGTACAAAATTTTTCTAAATG [XGTACX_site5334]	9.77
AATATAAATGTGATTACACACAACAGATTTAAATGG [CACACA_site4802]	10.1
TTATTTTTTAATTATATTCAAAATTAAAAAAAAAAA [XGTACX_negctrl_site226]	8.71
ATTGATAAATTAACTAGTACACATATAAATATATTA [XGTACX_site2325]	9.57
ATTAAAAAAAAAAAAAAAAAAAAAAAAAAAAAAAAA [CACACA_negctrl_site1060]	8.97
AACAATAATTTTGAATGTACATATAAATATTTTTAT [XGTACX_site5501]	9.62
ATATACATATAGGATGCACACATAATTCAAATACAA [CACACA_site8120]	10.2
AAAAAAAAGAATAGCACACACACATATATAAATATA [CACACA_site630]	10.5
TATAATGGTTCTGGTGTGCACCATGACAGAATCAAG	9.61
TCTTATAAAGGTAATTGTACATATTTATAATTTCTT [XGTACX_site4847]	9.58
GTGAAAGGAAAAGTTGAACACACAAAGTAAACTATA [CACACA_site9178]	9.9
AATAATATTTAATACGCACACAATAATAATATAAAA [CACACA_site1763]	10.1

Sequence	gcPBM binding intensity (ln)
CACACGCACGAACACACACACATATAAATATAAATA [CACACA_site6299]	10.2
ATATATTATTATACATGTACATATATAGATATATAT [XGTACX_site4358]	9.7
TATATTTTTATTGAACGTACAAAAAGTCGAAAACAG [XGTACX_site3967]	9.56
TTTAAATACAGACATACACACATACACGCACATATA [CACACA_site6400]	10.5
AGGTAGAAATTGTTAAAAAATCATACATATTATATA [CACACA_negctrl_site622]	9.52
GTTAATTCTATGAATTGTACTTAAATATAATTATAT [XGTACX_site2785]	9.33
ATAAATACTAAAAATGAAATATAGAAAATAGCAATA [CACACA_negctrl_site501]	9.82
CAAAATAAAAATAACACACACATTTATATAAATACA [CACACA_site4790]	10.2
ACAGTTAAAACAATAACACACAAAGAAAAAAAAAAA [CACACA_site737]	9.8
TATAATATATTATATACACACATTATAAAATACCCA [CACACA_site4858]	9.83
GAAAAAAGAAATTTATGTACATACATATATATATAT [XGTACX_site7888]	9.74
ATATGTAAAATATGGGGTACGAAGGTAGGTAGGTAA [XGTACX_site1392]	10.1
ATTCTATATGTTACATAAACCTATATTTTTTTTTTT [CACACA_negctrl_site860]	9.58
ATAAAGCCATACAATACACACATTTTACATGTCGGT [CACACA_site3265]	9.98
TAAGCCACCATATTTACACACACATCAAAATGTATT [CACACA_site1815]	10.1
TAAATAATATAATTATGTACGTATTTCTTTATTTTA [XGTACX_site8410]	9.61
GCTGAAAATAAATGAAGTACACAAGTAATATATATA [XGTACX_site6205]	9.75
TAATATTGACTATATACACACATATAAATATAAATA [CACACA_site6414]	9.74
TATATATATATATATACATGCATCATTGTTCACCTT [TGCATGCA_site177]	9.77
TTTTTTTTTTAATTAACACACATAAATATAAATATA [CACACA_site7527]	9.49
AAAAAAAAAAAAAAAAGTACATATGCTCAAGAGATG [XGTACX_site3783]	9.54
CATTCAAAGAAAAACAGTACGTGTAGCAAAAGGCCT [XGTACX_site266]	9.69
TGAATAAAATATTATACACACATATGTATTTAACAT [CACACA_site4694]	9.79

Sequence	gcPBM binding intensity (ln)
TTGTATTTACTATACACACACATACATACATACATA [CACACA_site4603]	10.2
AATGGGATCATGGTATGTACTTACACAAATGAATTA [XGTACX_site5389]	9.61
ATCATTTAAACAATATGTACTCATTGTAGATATGGT [XGTACX_site5088]	9.55
ATATATATATATATGTGTACATATTAGTGATATAAT [XGTACX_site7161]	9.83
AATGCGCATTTTTTTTTTTTTTTTTTTTTTTTTTTT [XGTACX_negctrl_site258]	9.32
CGTTACACAAAAATATGTACATATATACATATATAT [XGTACX_site4631]	9.86
TATAAATATAAATACTGTACATTATATTATATAATA [XGTACX_site2480]	9.5
TATTCCCCCAAACACACACACACACCCACATACCAC [CACACA_site2304]	10.7
TAAAAATAATATTAATGTACATTACATATTAATATA [XGTACX_site1019]	9.45
GAAAAAAAAATATCTTGTACTTACATAACTATTGGT [XGTACX_site5326]	9.55
AAAGGTTTATCTGATACACACATAAGTGATCAGGTT [CACACA_site6233]	9.67
TAAATTAAAAAACATAAACTATTGGAAACGCATTGA [CACACA_negctrl_site935]	9.7
TATACATATGTATGCACACATACATACCCATATAAT [CACACA_site5842]	9.82
CTATATATAAAATATTGTACTTATTTTTATTACATC [XGTACX_site3963]	9.63
TTTTCTCAATTTTGGTGTACTTTTTTCTTAACACAT [XGTACX_site8918]	9.83
TATTTAAAATATTAAATTTGTAAAGTTCGAGGGAAG [GTGCAC_negctrl_site337]	9.53
ACACAATAAACATTATGTACATATAATGTTCTGTGT [XGTACX_site3381]	9.8
AATGATAATCTATTATGTACACATATATTCTTATGT [XGTACX_site4148]	9.94
TATTTTTATCAATTCACACATAAATATATTTATATG [CACACA_site5547]	9.61
CACAGTGATATAAAAACACACATGAATTAAAATTTC [CACACA_site4999]	9.73
